The labels stand for the following.
T1: UNK ZnF1-3 (human, UniProt Q9C0B0 31-174)
T1 sequence: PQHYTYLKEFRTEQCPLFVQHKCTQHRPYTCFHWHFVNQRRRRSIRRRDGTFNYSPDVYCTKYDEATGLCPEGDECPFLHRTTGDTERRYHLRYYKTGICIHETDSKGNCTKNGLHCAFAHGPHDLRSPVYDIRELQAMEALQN

B1: chr5:60455605:60455606:-_ENSG00000188725_ENST00000339020|hu_hu|FALSE|FALSE (ssRNA)
RNA: GGGAGUUCUACAGUCCGACGAUCAUUUACAAUAACUGUCAAUAGAAACCUAUAAACUUCUACACCCACGCCUAAAAGUUACUAUAGUAUUGAGGUCAGAACUAACAUGAUUCUUCCAUUUGGUCAAAUUUCAUUUACUAAAUCCAACAGAGGAUUGAGCAUCA
B2: chr12:82822756:82822757:-_ENSMUSG00000042724_ENSMUST00000035987|mus_hu|FALSE|FALSE (ssRNA)
RNA: GGGAGUUCUACAGUCCGACGAUCGGCUGAGGAGAGGGAGCAGCAGACAGAUUUGGCUGAGUGACUCUGCAGGGUCACUCUAAAGGCAAGGAAGACUGUGGAGGGUGGGGGACAUGCAUGCACCCCUUCCUCCCCUACACAGCCCAACAGAGGAUUGAGCAUCA
B3: chr16:57198444:57198445:-_ENSMUSG00000022749_ENSMUST00000023431|mus_hu|FALSE|FALSE (ssRNA)
RNA: GGGAGUUCUACAGUCCGACGAUCCCUAAAAGAAGCCGGUGUUUUGCUGCAAUAAUACUGAGCCAGAGAGAAAAGGUCUUCUAUAUCUUCUAUAUUCAGACUGGAUGGAGUAUUUUCCAAGAACUUGAUAACUUCUUCUUUGCUCAACAGAGGAUUGAGCAUCA
B4: chr16:45382771:45382772:-_ENSMUSG00000022661_ENSMUST00000163230|mus_mus|mus_mus_mus_hu_True|48_48 (ssRNA)
RNA: GGGAGUUCUACAGUCCGACGAUCCUGGGUCAUGUUAUAAGACAAAUGGACAGGGAGGGCAUGCUUCUCAAAAAAUGUGAGCUAUUGACUAAGACUAACAAUAUUUAUCUAGCUAUAAAAAUAAGUUAAAUGAAUAAGUUAAGACAACAGAGGAUUGAGCAUCA
B5: 25585956_25589799_587_3pUTR_ENSG00000170558_ENST00000399380|human|control|control (ssRNA)
RNA: GGGAGUUCUACAGUCCGACGAUCAAUGAAACCGGGCUAUCUGCUCGCGAUCCAGGGGCUUUGUCACCGACAGCUGACCCGAGAUGGGGUUGAUAAUGAAGAUACCAGUUGGAGGCUGGUCAGCUCCUGGCCCAGUUACACUGUCAACAGAGGAUUGAGCAUCA
B6: chr7:135612270:135612271:-_ENSG00000105887_ENST00000393085|hu_mus|hu_hu_hu_mus_False|8_88 (ssRNA)
RNA: GGGAGUUCUACAGUCCGACGAUCGUUUUUUUCUGAGAUGUUAAAUAUUCAGUGGAGGGAAAACAAAACUUAACCUUUUAUUAAUGCGUGUUGUACCAAAAGCAGACAUUUUAGCUUCAUUUAUUCACUCAAAAUAUCAUUAAGCAACAGAGGAUUGAGCAUCA
B7: chr7:23164667:23164668:+_ENSG00000122550_ENST00000322275|hu_mus|motif|central (ssRNA)
RNA: GGGAGUUCUACAGUCCGACGAUCCACAGGUUCAAUCUGGUACUGAUUUGCUGCAUCUAACAAAGACUGAACAUUGUUGCGGUUCACAGAAAUUCUAGCAGUAUAAGCAAAUUCCACCAGUUGUUCAAUAAUAUCAGGUUCAGCCAACAGAGGAUUGAGCAUCA
B8: 14041772_14041892_1692_ncRNA_ENSMUSG00000068036_ENSMUST00000124922|mouse|control|control (ssRNA)
RNA: GGGAGUUCUACAGUCCGACGAUCUCCUGACAUUGGAUCUACAUCACUUUACUAAAUGUUAAGUUCUGAGACACCUAAGUUUUACUGUCACCCAUGAGCUCCCACUCUUCUCAGAUGUCUCUGCUCAUUCCUAUAUGAAUGCUACAACAGAGGAUUGAGCAUCA
B9: chr19:41288841:41288842:-_ENSMUSG00000025016_ENSMUST00000025989|mus_mus|FALSE|FALSE (ssRNA)
RNA: GGGAGUUCUACAGUCCGACGAUCUAAAUCUCCAAAUGUUUAAUAAAAACAAGCAUCUUCUCCAUUUAACACUUCGCUUGCUAACUGUACAGUAGAUUGUAUUAUAGAGAGUGCACCUCUACUUUCAUACUGUAUCUUCUUUGGCAACAGAGGAUUGAGCAUCA
B10: 70776874_70777083_1516_CDS_ENSG00000147162_ENST00000373719|human|control|control (ssRNA)
RNA: GGGAGUUCUACAGUCCGACGAUCGCGGUAAGAAGCUAUGGCUUCUGGAAUAUUCCCUGAAUCCUUAUGAAUGGAAGCCAGAUUGCUAUGUGCAUCUGCAAAUGCAGGAUUAAUUUGGAUGGCACGCGUAUAACACUGCAAGGCCAACAGAGGAUUGAGCAUCA
B11: chr17:80203902:80203903:-_ENSG00000141551_ENST00000269361|hu_hu|FALSE|FALSE (ssRNA)
RNA: GGGAGUUCUACAGUCCGACGAUCAGUGCUGCCUUCCGAUGGGAGACGAGCAGCUACUUGCCGUGGUGUUCGAAAGGAAUGCUAUUCUGUGAGGUGGACAUGCGAGAGGUAUCUUGUCGGCCUGUGAGGUCGGACGAGGAGAUGCAACAGAGGAUUGAGCAUCA
B12: chr3:125216745:125216746:-_ENSG00000114520_ENST00000251775|hu_mus|FALSE|FALSE (ssRNA)
RNA: GGGAGUUCUACAGUCCGACGAUCGAAGAUUUUGUCUCUACAAAGGACAGGAUGUGAAGCAACCCUCAAGAGGAAGUUUUCUAAGCCCACGCGUCGUCUCUCCACAAAGUCUGGGUCCAUGUUGUCAGCAGAGAGUUUAUGCCACAACAGAGGAUUGAGCAUCA
B13: chr1:183495733:183495734:+_ENSG00000116698_ENST00000515829|hu_mus|FALSE|FALSE (ssRNA)
RNA: GGGAGUUCUACAGUCCGACGAUCGGAAGACUUCACACGGCAUGGCAAAUCUACAUUAAACACCGUACACAGUUCCUGUAAUAACUGAGUAUAGAAGCCGCUAGCUGCCUCUAGGAACAGAGAAAGGUUUGCCUGGACUUCACUCAACAGAGGAUUGAGCAUCA
B14: chr1:6238667:6238668:+_ENSMUSG00000025907_ENSMUST00000027040|mus_mus|FALSE|FALSE (ssRNA)
RNA: GGGAGUUCUACAGUCCGACGAUCCAUCAUUUCUGGACUUUGUGGAUCACUUAUAGGGUUUGGAGACGAUAAAUUUUCUUCUAUCACAAACUCAUUCACAGCAGACAUAAAGUCAGACUCAGGGCUUUCUGCUAAUGAAUCCAACAACAGAGGAUUGAGCAUCA
B15: chr11:51605143:51605144:+_ENSMUSG00000020386_ENSMUST00000020653|mus_mus|motif|central (ssRNA)
RNA: GGGAGUUCUACAGUCCGACGAUCGGGAAGCUGAUCUUUAUAAACGGUGAUGGAUUGAUGUGGGGUUAGAAACUGUAAAAACGGUCUGUGUGGAAUUAGAAAGCUAACAUUGUGAUAUUCAAACUUGAAUCAGUUUGCAAUUCCCAACAGAGGAUUGAGCAUCA
B16: chrX:132779699:132779700:+_ENSMUSG00000042712_ENSMUST00000048687|mus_mus|FALSE|FALSE (ssRNA)
RNA: GGGAGUUCUACAGUCCGACGAUCAUUGAAGCAAGCUGUCUCUUCUGGCCGCUGGCCUCUCGCACCACCGUCUGCAAGGCUAAAGGGAGCUGGUACCCAGAUGGAAACAAGGACCAGACUAGCAGGAUUUCUGCACACGUCGACCAACAGAGGAUUGAGCAUCA
B17: chr2:90620368:90620369:+_ENSMUSG00000008200_ENSMUST00000013759|mus_mus|FALSE|FALSE (ssRNA)
RNA: GGGAGUUCUACAGUCCGACGAUCAGUGGCUUAUACUUAUUGCCACAUACUUAGGGGGGAAUUUCUCAAAACCAAGGAUCUAAACACCUGCUGCUUGCUGCUGCUCCUGCCUGUGCUGCAAAGCGAGCAUUCUAGGGUGUGUGUCAACAGAGGAUUGAGCAUCA
B18: chr14:76904430:76904431:+_ENSMUSG00000022010_ENSMUST00000022587|mus_mus|mus_mus_mus_hu_True|28_108 (ssRNA)
RNA: GGGAGUUCUACAGUCCGACGAUCUGCUGGAAAAAAAACCCUCGUGGAAAAAAAGAGGGAACACCAGCAGCCUUGUAUAAGCUAGAUAAAAUCUUCUGGCUUUCCGCAGCUCAGGGCGAAACAGAAAACGGCAGCCCUAAUUUACAACAGAGGAUUGAGCAUCA
B19: chr5:130536139:130536140:+_ENSMUSG00000025532_ENSMUST00000026608|mus_hu|FALSE|FALSE (ssRNA)
RNA: GGGAGUUCUACAGUCCGACGAUCGCCAGGCCGGUUCUUUUCUUAUCUCUGUUGUUCUCGAGGAAAUUCCUCUAAGGUGAGCCAAGGUCAGUGGCUCAUUUUAACUUAGAGUAACUCUCUGGGGACUCUAACCAGACUUCCAACCAACAGAGGAUUGAGCAUCA
B20: 66883328_66934737_440_3pUTR_ENSMUSG00000029207_ENSMUST00000159786|mouse|control|control (ssRNA)
RNA: GGGAGUUCUACAGUCCGACGAUCUACCUUCUGCCCAUAGCGACAGUCAGCGUGUGAGUGGGGGACUCAGGAACUCCCAAGGACUCCAGAAACAGAGAGAGGGCUAGCUGGGCGCACUUAAGUCAGCAGGUGGGAAUCAGCUCUCAACAGAGGAUUGAGCAUCA
B21: chr1:186721242:186721243:-_ENSMUSG00000026620_ENSMUST00000027929|mus_mus|motif|central (ssRNA)
RNA: GGGAGUUCUACAGUCCGACGAUCAUAAUGAGUAUUAAAAAGAUGUGCCUUUUCUAGUGGCUUUACGUCGCAUACGUCACGGAUUAUGAAAGAAGGCAAAUGACCAGUUACAAAGCUCCACAUGACUGGAAUAAUGAUGUGGAACAACAGAGGAUUGAGCAUCA
B22: chr2:172803269:172803270:+_ENSG00000128708_ENST00000264108|hu_hu|motif|central (ssRNA)
RNA: GGGAGUUCUACAGUCCGACGAUCAAAAGCAGUUUCAUCAUCCCCAAAGAGUUGAUGGGUAUACUCAGGAAAGAAAGUUCGGAUGUCAUUUUCAAGAUCUUCAGGAAAACGAACUAAUUUUAGUUCAAUUGCUGUGUUGGUGUUCAACAGAGGAUUGAGCAUCA

Some of the results follow.

This experiment addresses T1, UNK ZnF1-3. Nature of the experiment: nsRBNS (natural sequence RNA bind-n-seq); RBNS binding buffer (assumed for nsRBNS): 25 mM Tris pH 7.5, 150 mM KCl, 3 mM MgCl2, 0.01% Triton X-100, 500 ug/ml BSA, 20 U/ml SUPERase-In, 4 C; UNK is unkempt and MSI1 is Musashi-1; names of the RNAs are library labels; protein concentration not given here; high values mean tight binding.
Turning to B1, the binding signal came to 0.993 enrichment R.

On to B2, for which the binding signal was determined as 0.841 enrichment R.

Consider B3, for which the binding signal is 1.07 enrichment R.

Molecule B4 yielded a binding signal of 2.86 enrichment R.

The molecule B5 yielded a binding signal of 0.713 enrichment R.

Consider B6, for which the binding signal is 0.835 enrichment R.

Molecule B7 registered a binding signal of 1.56 enrichment R.

For B8, the binding signal came out at 0.662 enrichment R.

The molecule B9 gave a binding signal of 0.866 enrichment R.

Regarding B10, the binding signal was found to be 1.16 enrichment R.

For the molecule B11, the binding signal came to 1.06 enrichment R.

Molecule B12 gave a binding signal of 1.42 enrichment R.

B13 came in with a binding signal of 1.07 enrichment R.

Molecule B14 came in with a binding signal of 1.18 enrichment R.

Molecule B15 yielded a binding signal of 1.15 enrichment R.

Molecule B16 came in with a binding signal of 2.08 enrichment R.

For B17, the binding signal turned out to be 0.907 enrichment R.

B18 came in with a binding signal of 1.44 enrichment R.

B19 gave a binding signal of 0.876 enrichment R.

The molecule B20 returned a binding signal of 1.22 enrichment R.

The molecule B21 showed a binding signal of 0.692 enrichment R.

In turn, B22 yielded a binding signal of 0.848 enrichment R.

The values are drawn from paper PMC12136788.
